Here are results for 1 molecule from patent publication US20030134390A1 (ZymoGenetics, published 2003).

The target in this test is IL-21 receptor and IL-2Rγ expressed on the surface of transfected cells (human). Put plainly: competition with 250 pM 125I-IL-21 for binding to BHK cells transfected with IL-21 receptor and IL-2Rγ, 2 h at 4 C.

B1: zalpha11 Ligand I156ST/Q153D (ligand)
chain: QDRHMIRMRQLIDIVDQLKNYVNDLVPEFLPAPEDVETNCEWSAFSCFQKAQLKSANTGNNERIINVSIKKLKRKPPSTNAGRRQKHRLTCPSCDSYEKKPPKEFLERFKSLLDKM
notes: Tested as insect cell culture medium; also called Q145D/I148Stop
As to B1, the IC50 (in general, the point on the concentration scale where inhibition reaches its midpoint) stood at 10 nM. This lies in the double-digit nanomolar range.
